Assay results taken from publication PMC13083723 (Patterns, 2026).
Screen size: about 5,400 compounds; about 190 (3.5%) showed an effect of 50% or more. Some of the results follow. Residues, ends and D or L forms follow the SMILES beside them. *: point of attachment. Cbz = O=C(OCc1ccccc1)*

The molecules below were run on Vero-E6 (assay: primary screen, phospholipidosis by LipidTOX staining; higher = more effect of the substance). Conditions: 10 µM.
Procedure: To measure drug-induced PLD in Vero-E6 cells, we used the HCS LipidTOX Red Phospholipidosis Detection Reagent (Invitrogen, #H34351), which is non-toxic to cell growth and remains well retained after aldehyde fixation. In this setup, compounds (at 10 μM concentration) and controls (amiodarone: 10 μM concentration; DMSO: 0.1 v/v %) were added to clear-bottom, 384-well plates (PhenoPlate 384-well, black, optically clear flat bottom, tissue-culture treated, Revvity #6057302) using the Echo Liquid Handler (Labcyte).

Structure (SMILES) | result_ITMP [%]
COc1ccc(C2(CNC(=O)c3ccc(NC(=O)c4ccco4)cc3)CCOCC2)cc1 | -3.05
Cc1c(C(=O)NC2CCCCC2)sc2nc3ccc(N)cc3n12 | -5.2
NC(=O)N/N=C/c1ccc([N+](=O)[O-])o1 | -3.1
O=C(O[C@H]1CN2CCC1CC2)N1CCc2ccccc2[C@@H]1c1ccccc1 | 59.2
CCOC(=O)c1ccc(OCCC2CCN(c3ccc(C)nn3)CC2)cc1 | -2.25
N=C(N)NC(=N)N1CCOCC1 | -6.56
C[C@H]1CN(Cc2ccc(CC(=O)N3CCC(Nc4cccc(F)c4)CC3)cc2)CCN1 | -0.99
O=C(O)[C@H](Cc1ccc(Nc2nccc3ccncc23)cc1)NC1=C(Br)C(=O)C12CCCCC2 | -1.64
CC(C)(C#N)c1ccc(N2C(=O)OCc3cnc4ccc(-c5cnc6ccccc6c5)cc4c32)cc1 | -10.5
C[C@]12CCC(=O)C(O)=C1CCC1C2CC[C@]2(C)C(=O)CCC12 (some centres unmarked) | -1.78
CCN(CC)Cc1ccc2cc(COC(=O)Nc3ccc(C(=O)NO)cc3)ccc2c1 | 24.4
Cc1ncc(CSSCc2cnc(C)c(O)c2CO)c(CO)c1O | 4.33
NC1=N[C@H]2[C@H](CCCCC(=O)O)SC[C@H]2N1 | -5.63
CN(C)c1ccc(-c2nc3c(N4CCN(CC(=O)Nc5nccs5)CC4)c(Cl)cnc3[nH]2)cc1 | -3.31
Fc1ccccc1-c1nc2ccn(Cc3ccc(-c4ccc(C(F)(F)F)cc4C(F)(F)F)nn3)cc-2n1 | -1.14
COc1ccc(C[C@@H](C)[C@@H](C)Cc2ccc(OC)c(OC)c2)cc1OC | 6.63
Oc1cccc(Nc2ccc(Nc3cccc(O)c3)nn2)c1 | -10.8
CCOC(=O)[C@H](Cc1ccc([N+](=O)[O-])cc1)NC(=O)c1ccccc1 | -1.7
CC(C)C[C@@H](C=O)NC(=O)[C@H](CC(C)C)NC(=O)[C@H](CC(C)C)NC(=O)OCc1ccccc1 (Cbz-Leu-Leu-Leu-aldehyde) | 5.65
CC(C)n1cnc2c(C(=O)N[C@H]3CN4CCC3CC4)cc(Cl)cc21 | 11.8
N#CCC1(n2cc(-c3ncnc4[nH]ccc34)cn2)CN(C2CCN(C(=O)c3ccnc(C(F)(F)F)c3F)CC2)C1 | 0.26
OC[C@H]1O[C@@H](Oc2ccc(O)cc2)[C@H](O)[C@@H](O)[C@@H]1O | -7.03
O=C(c1ccc(C(=O)N2CCC(N3CCCC3)CC2)c(Nc2ccccc2)c1)N1CCC(N2CCCC2)CC1 | 4.66

Structure (SMILES) | result_ITMP [%]
O=Nc1ccc(O)c2ncccc12 | 6.47
Nc1ccc(S(=O)(=O)c2ccc(N)cc2)cc1 | 3.12
CN1c2c(nc(N)[nH]c2=O)NC[C@@H]1CNc1ccc(C(=O)N[C@@H](CCC(=O)[O-])C(=O)[O-])cc1 | -7.73
OCCN1CCN(CCCN2c3ccccc3Sc3ccc(Cl)cc32)CC1 | 84.7
CC(C)(C)NCc1cc(Nc2ccnc3cc(Cl)ccc23)c2c(c1O)CCCC2 | 11.2
CN(C)CCc1c[nH]c2ccc(Cn3cncn3)cc12 | -5.8
C=CC1=C(C)c2cc3[nH]c(cc4nc(cc5[nH]c(cc1n2)c(C)c5CCC(=O)O)C(CCC(=O)OC)=C4C)[C@@]1(C)C3=CC=C(C(=O)OC)[C@H]1C(=O)OC | -1.93
CCC(CC)Nc1cc(C)nc(Oc2c(C)cc(C)cc2C)c1C | 0.31
Oc1cc(Cl)ccc1Oc1ccc(Cl)cc1Cl | -5.79
C=C1/C(=C\C=C2/CCC[C@]3(C)[C@@H]([C@H](C)CCCC(C)(C)O)CC[C@@H]23)C[C@@H](O)C[C@@H]1O | -1.95
Cc1cc(C(=O)Nc2cc(Oc3ccc4nc(NC(=O)C5CC5)cn4n3)ccc2C)n(C)n1 | 0.15
C[C@]12CC[C@H](O)CC1=CCC1C2CC[C@]2(C)C(=O)CC[C@@H]12 (some centres unmarked) | 13.7
CC1(C)OC(=O)NC1=O | -2.7
On1ncc(C2CCNCC2)c1-c1cccc(-c2ccccc2)c1 | -3.65
C[C@H](Nc1ncnc2[nH]cnc12)c1nc2ccc(F)cc2c(=O)n1-c1ccccc1 | -2.32
N[C@@H](C(=O)O)c1ccc(C(=O)O)c(C(=O)O)c1 | -2.09
N#Cc1c(N)nc(SCc2csc(-c3ccc(Cl)cc3)n2)c(C#N)c1-c1ccc(OCCO)cc1 | 0.38
CCCCNNC(=O)c1ccc(Br)cc1 | -9.9
Fc1ccc(-c2nc3n(c2-c2ccncc2)CCS3)cc1 | -4.5
CCC[C@H](N[C@@H](C)C(=O)N1[C@H](C(=O)O)C[C@@H]2CCCC[C@@H]21)C(=O)OCC | -8.8
CCCC(=O)O[C@]1(C(=O)COC(C)=O)CC[C@H]2[C@@H]3C[C@H](F)C4=CC(=O)C=C[C@]4(C)[C@@]3(F)[C@@H](O)C[C@@]21C | -0.93
Cn1ncc(Cl)c1-c1cc(C(=O)N[C@H](CN)Cc2ccc(F)c(F)c2)oc1Cl | 82.6
COc1ncc2cc(C(=O)Nc3cc(C(=O)NCc4cccc(Cl)c4)ccc3Cl)c(=O)[nH]c2n1 | -7.54

Structure (SMILES) | result_ITMP [%]
Nc1ccc(C(=O)NCC(=O)O)cc1 | -10.8
COc1ccc(NS(=O)(=O)c2ccc(N)cc2)nn1 | -1.34
O=C(O)c1ccc2c(c1)C(=O)N(c1cccc(Oc3ccc([N+](=O)[O-])cc3)c1)C2=O | 0.2
O=S(=O)([O-])c1cc(I)c(O)c2ncccc12 | -9.09
CCCCCCCC/C=C/C(=O)O | -3.69
COc1cc2c(Oc3ccc4[nH]c(C)cc4c3F)ccnc2cc1OCC1(N)CC1 | 35.5
CC[C@H](/C=C/[C@@H](C)[C@H]1CC[C@H]2[C@@H]3CC=C4C[C@@H](O)CC[C@]4(C)[C@H]3CC[C@]12C)C(C)C | -2.7
CC(C)(C)c1[nH]cnc1/C=c1\[nH]c(=O)/c(=C/c2ccccc2)[nH]c1=O | -3.64
CC(C)(C)CC(=O)Nc1c(F)cc(C(=O)/N=c2\sccn2COP(=O)(O)O)cc1F | -1.22
Cn1c(=O)cc(N2CCC[C@@H](N)C2)n(Cc2cc(F)ccc2C#N)c1=O | -10.5
O=c1c2c(c1=O)N(CCP(=O)(O)O)CCCN2 | -5.15
C/N=C(/NS(=O)(=O)c1ccc(Cl)cc1)N1CC(c2ccccc2)C(c2ccc(Cl)cc2)=N1 (racemic) | -1.59
Cc1ccccc1NC(=O)Nc1ccc(CC(=O)N(C)[C@@H](CC(C)C)C(=O)NCC[C@H](NC(=O)[C@@H]2CCCN2S(=O)(=O)c2cc(Cl)cc(Cl)c2)C(=O)O)cc1 | -1.2
CCCOc1ccc2[nH]cc(C3=CCNCC3)c2n1 | 4.69
COc1ccc(Cc2nccc3cc(OC)c(OC)cc23)cc1OC | -4.22
C[C@]12C=CC(=O)C=C1CCC1C2[C@@H](O)C[C@@]2(C)C1CC[C@]2(O)C(=O)COC(=O)CCC(=O)O (some centres unmarked) | -5.57
CSc1nc(NC2CCCC2)c([N+](=O)[O-])c(NC2CCCC2)n1 | -1.26
CCC(CC)Nc1nc(C)c(-c2ccc(OC(F)(F)F)cc2OC)nc1OC | -1.16
CCOC(=O)c1ccc(OC(=O)CCCCCNC(=N)N)cc1 | -13.9
CC(C)(C)Cn1c(N)nc2ccc(-c3[nH]c(C(C)(C)C)nc3-c3ccc(F)cc3)nc21 | 36.4
CCCN[C@H]1CCc2nc(N)sc2C1 | -2.93
Cc1c(C(=O)Nc2ccc(N3C[C@@H](C)O[C@@H](C)C3)nc2)cccc1-c1ccc(OC(F)(F)F)cc1 | -6.29
O=C(NCc1ccccc1)OCCO | 8.77

Structure (SMILES) | result_ITMP [%]
O=C(NC1CCN(CCCCC2(C(=O)NCC(F)(F)F)c3ccccc3-c3ccccc32)CC1)c1ccccc1-c1ccc(C(F)(F)F)cc1 | 62.5
COc1ccc(C(=O)CC2(O)C(=O)Nc3c(Cl)ccc(Cl)c32)cc1 (centres unmarked) | -1.47
CNC(=O)c1cc2c(cn1)[nH]c1ccccc12 | -1.63
Cc1cc(=O)oc2cc(O)ccc12 | -3.44
CCCCNc1ncc(-c2ccc(CN3CCOCC3)cn2)c(N[C@H]2CC[C@H](O)CC2)n1 | -2.9
O=C([O-])C1[O][Sb]2[O]C(=O)C([O]2)C(C(=O)[O-])[O][Sb]2[O]C(=O)C1[O]2 (centres unmarked) | -8.7
C/C=C1/[C@H](O[C@@H]2O[C@H](CO)[C@@H](O)[C@H](O)[C@H]2O)OC=C(C(=O)OC)[C@H]1CC(=O)OCCc1ccc(O)c(O)c1 | -1.62
Cc1nc2ccccc2n1Cc1ccc(Cl)cc1 | -2.71
Clc1cccc(-c2nnnn2Cc2cccnc2)c1Cl | -5.12
O=C(O)Cc1ccc2c(c1)C(=O)c1ccccc1CO2 | -2.68
COc1cccc(-c2ccc(NC(=O)C3=C(C(=O)O)CCC3)c(F)c2)c1 | -1.21
O=C(O)CCc1ccc(NCc2cccc3c2CCCN3CCOc2ccccc2)cc1F | -4.23
CCC1(CC)C(=O)C=CNC1=O | -8.67
OCCCNc1cc(-c2ccnc(Nc3cccc(Cl)c3)n2)ccn1 | 1.41
CC(=O)Nc1cccc2c1c(Sc1ccc(Cl)cc1)c(C)n2CC(=O)O | -3.99
FC(F)OC(F)(F)C(F)Cl (centres unmarked) | -10
Nc1ncn([C@@H]2O[C@H](CO)[C@@H](O)[C@H]2O)c(=O)n1 | 16.8
CC(COc1ccccc1)N(CCCl)Cc1ccccc1 (centres unmarked) | 0.48
CCCNC(C)C(=O)Nc1ccccc1C (centres unmarked) | -3.79
COc1ccc(CN(CCN(C)C)c2ccccn2)cc1 | 5.57
